# Source: PubChem BioAssay AID504832 (National Center for Advancing Translational Sciences (NCATS), 2011)
# About 18,000 (5.8%) of roughly 310,000 compounds were called active. Inconclusive means that the source gave no clear call. Such entries were picked first, then a sample of the others. The call rests on the fitted dose curve; in most records, active means well fitted inhibition curve with a large enough effect; inconclusive means small, poorly fitted or top-dose-only effect, or another doubt; inactive means no such curve, though single readings can be large or run the other way. No potency is given beside an inconclusive call; the fits are too rough.
# Test: Primary qHTS for delayed death inhibitors of the malarial parasite plastid, 48 hour incubation
# Conditions: P. falciparum luciferase growth in erythrocytes; series mostly up to 28.7 µM; activity change, negative = inhibition: at the top concentration
# How it was run: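 First compound was added to culture medium, then infected red cells at 0.1% parasitemia and 2% hematocrit (final). After incubation at 37 C under 5% CO2, luciferase detection reagent was dispensed and light output recorded.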
# On the % scale 0 is the no-effect control and ±100 the full control effect; potency means the concentration at half of the fitted maximal effect; tags describe the fitted curve by direction and shape.
Compound,Potency,"activity change, negative = inhibition"
Cc1cccc(Sc2c([N+](=O)[O-])ncn2C)c1,"inconclusive [inhibitor, partial curve]",–
Cc1cccc(N2C(=O)C3C(c4ccccc4)OC4(C(=O)c5ccccc5C4=O)C3C2=O)c1 (stereo not drawn),"inconclusive [inhibitor, single point]",–
COC(=O)c1cc2ccccc2c(-c2c(O)ccc3ccccc23)c1O,active: 9.28 µM,–
CCCCNc1c(-c2cccc(-c3cc(C(C)=O)cs3)c2)nc2ccc(C)cn12,"inconclusive [inhibitor, single point]",–
Cc1cccc(NC(=O)COC(=O)CC2CCCC2)c1C,–,inactive: 25.3%
CCO[C@H]1OC(C(=O)NCc2ccccc2)=C[C@@H](c2ccccc2)[C@@H]1CCCO,"inconclusive [inhibitor, single point]",–
CN1C(=O)C(=Cc2ccc(OCC(=O)Nc3ccccc3)cc2)C(=O)N(C)C1=O,–,inactive: 6.39%
Cn1c(=O)c2c(nc(SCC(=O)NCC3CCCO3)n2Cc2ccc(F)cc2)n(C)c1=O (stereo not drawn),"inconclusive [inhibitor, partial curve]",–
Cc1ccccc1OCC(O)Cn1c(SC(C)C)nc2c1c(=O)[nH]c(=O)n2C (stereo not drawn),"inconclusive [inhibitor, single point]",–
c1ccc(-c2nc3ccccn3c2NCc2ccc3c(c2)OCO3)cc1,"inconclusive [inhibitor, partial curve, poor fit]",–
COc1ccccc1C(=O)Nc1cccc(SC)c1,–,inactive: 97%
CN(C)c1ccc(Nc2cc(Cl)ncn2)cc1,–,inactive: -32.3%
COc1cccc(CNc2nc3nc4c(c(=O)n3[nH]2)CCC4)c1,"inconclusive [inhibitor, single point]",–
O=C(Nc1ccccc1Cl)c1ccc(S(=O)(=O)N2CCOCC2)cc1,"inconclusive [inhibitor, partial curve, poor fit]",–
COc1ccc(NS(=O)(=O)c2cccc(C(=O)NNC(=O)CNC(=O)c3ccccc3)c2)cc1,"inconclusive [inhibitor, full curve, poor fit]",–
CC(C)(C)c1cc(NCc2ccccn2)n2ncc(-c3ccccc3)c2n1,"inconclusive [inhibitor, partial curve, poor fit]",–
Cc1[nH][nH]c(=O)c1C(c1ccc(O)c(Br)c1)c1c(C)[nH][nH]c1=O,"inconclusive [inhibitor, single point]",–
O=C(CSCc1ccco1)Nc1cc(C(F)(F)F)ccc1N1CCOCC1,"inconclusive [inhibitor, single point]",–
